Laboratory results from US20150165067A1.

Legend:
Test in all cases: cell-based or functional assay
[1] = target: human FGFR3 Y373C, endogenous on KMS-11 multiple myeloma cells (human), P22607
[2] = target: human FGFR3(IIIc) K650E on BaF3 cells (human), P22607
[3] = target: human FGFR3(IIIc) S249C on BaF3 cells (human), P22607
[4] = target: human FGFR3(IIIc) WT on BaF3 cells (human), P22607
[5] = target: human FGFR3 K650E, endogenous on OPM-2 multiple myeloma cells (human), P22607
[6] = target: human FGFR3 S249C, endogenous on UMUC-14 bladder tumor cells (human), P22607
human FGFR3 S249C, endogenous on UMUC-14 bladder tumor cells (human), P22607, sequence (P22607 other isoform, or with tags, fused parts or gaps S249C S249C): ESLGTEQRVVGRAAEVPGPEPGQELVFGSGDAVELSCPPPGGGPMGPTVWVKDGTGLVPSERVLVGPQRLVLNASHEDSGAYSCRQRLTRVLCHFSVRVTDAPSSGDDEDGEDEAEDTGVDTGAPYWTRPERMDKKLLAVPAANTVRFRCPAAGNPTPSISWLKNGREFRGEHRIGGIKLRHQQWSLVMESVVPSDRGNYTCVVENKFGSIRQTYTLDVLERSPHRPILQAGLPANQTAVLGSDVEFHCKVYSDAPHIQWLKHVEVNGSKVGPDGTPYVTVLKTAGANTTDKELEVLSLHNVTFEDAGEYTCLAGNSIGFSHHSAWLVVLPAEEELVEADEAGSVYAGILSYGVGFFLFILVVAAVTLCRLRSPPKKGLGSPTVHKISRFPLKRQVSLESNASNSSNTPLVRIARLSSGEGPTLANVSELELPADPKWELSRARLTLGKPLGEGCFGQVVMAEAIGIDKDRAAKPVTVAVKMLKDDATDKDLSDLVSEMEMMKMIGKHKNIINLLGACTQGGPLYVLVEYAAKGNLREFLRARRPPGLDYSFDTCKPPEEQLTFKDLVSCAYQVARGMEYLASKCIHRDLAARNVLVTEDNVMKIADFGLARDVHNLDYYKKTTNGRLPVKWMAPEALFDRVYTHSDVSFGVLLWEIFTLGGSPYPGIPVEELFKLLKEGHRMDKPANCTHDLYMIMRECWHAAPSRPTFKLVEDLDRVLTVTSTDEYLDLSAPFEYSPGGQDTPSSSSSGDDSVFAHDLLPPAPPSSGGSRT

human FGFR3(IIIc) WT on BaF3 cells (human), P22607, sequence (P22607 23-806): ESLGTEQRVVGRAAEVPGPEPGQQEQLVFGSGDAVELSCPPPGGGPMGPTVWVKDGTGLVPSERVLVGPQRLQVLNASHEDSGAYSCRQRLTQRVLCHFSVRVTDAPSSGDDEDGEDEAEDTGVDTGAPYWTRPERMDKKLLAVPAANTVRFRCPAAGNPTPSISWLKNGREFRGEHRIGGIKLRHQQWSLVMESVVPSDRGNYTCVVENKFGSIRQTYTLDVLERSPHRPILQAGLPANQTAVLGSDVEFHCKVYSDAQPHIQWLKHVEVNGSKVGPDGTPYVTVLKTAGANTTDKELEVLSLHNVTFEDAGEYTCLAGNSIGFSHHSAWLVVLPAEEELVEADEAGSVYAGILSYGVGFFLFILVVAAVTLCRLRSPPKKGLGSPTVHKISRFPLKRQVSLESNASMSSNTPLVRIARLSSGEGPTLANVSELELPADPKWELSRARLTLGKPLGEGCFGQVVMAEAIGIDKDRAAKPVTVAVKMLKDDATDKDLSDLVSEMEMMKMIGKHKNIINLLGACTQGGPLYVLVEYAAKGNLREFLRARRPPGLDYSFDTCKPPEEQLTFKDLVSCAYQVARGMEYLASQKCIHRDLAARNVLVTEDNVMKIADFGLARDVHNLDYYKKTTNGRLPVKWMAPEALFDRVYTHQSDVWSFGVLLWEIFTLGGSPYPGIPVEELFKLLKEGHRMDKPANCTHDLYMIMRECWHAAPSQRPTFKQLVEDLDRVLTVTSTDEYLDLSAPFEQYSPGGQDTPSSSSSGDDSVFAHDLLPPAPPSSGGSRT
human FGFR3 Y373C, endogenous on KMS-11 multiple myeloma cells (human), P22607, sequence (P22607 other isoform, or with tags, fused parts or gaps Y373C Y373C): as the sequence (P22607 other isoform, or with tags, fused parts or gaps S249C S249C) above
human FGFR3(IIIc) K650E on BaF3 cells (human), P22607, sequence (P22607 23-806 K650E): as the sequence (P22607 23-806) above, with K628E counted along it
human FGFR3(IIIc) S249C on BaF3 cells (human), P22607, sequence (P22607 23-806 S249C): as the sequence (P22607 23-806) above, with S227C counted along it
human FGFR3 K650E, endogenous on OPM-2 multiple myeloma cells (human), P22607, sequence (P22607 other isoform, or with tags, fused parts or gaps K650E K650E): as the sequence (P22607 other isoform, or with tags, fused parts or gaps S249C S249C) above

| IC50 for neutralizing FGF1 (5.16 nM)-induced 3H-thymidine incorporation in BaF3 cells [2] [nM] | IC50 for neutralizing FGF9 (4.34 nM)-induced 3H-thymidine incorporation in BaF3 cells [2] [nM] | IC50 for neutralizing FGF1 (5.16 nM)-induced 3H-thymidine incorporation in BaF3 cells [3] [nM] | IC50 for neutralizing FGF9 (4.34 nM)-induced 3H-thymidine incorporation in BaF3 cells [3] [nM] | IC50 for neutralizing FGF1 (5.16 nM)-induced 3H-thymidine incorporation in BaF3 cells [4] [nM] | IC50 for neutralizing FGF9 (4.34 nM)-induced 3H-thymidine incorporation in BaF3 cells [4] [nM] | Binder | cytotoxicity IC50 on KMS-11 cells, Antibody 1 mixed with a constant amount of conjugated Fab (10 nM), Cell Titer-Glo, 96 h [1] [nM] | cytotoxicity IC50 (nM), OPM-2 cells [5] [nM] | Cytotoxicity Conjugate 1 IC50, UMUC-14 (bladder) cells, Cell Titer-Glo, 96 h [6] [nM] | Cytotoxicity Conjugate 1 IC50, KMS-11 (multiple myeloma) cells, Cell Titer-Glo, 96 h [1] [nM] | cytotoxicity IC50 (nM), KMS-11 cells [1] [nM] | cytotoxicity IC50 (nM), transfected Baf3-FGFR3(IIIc) cells [4] [nM] |
| --- | --- | --- | --- | --- | --- | --- | --- | --- | --- | --- | --- | --- |
| 8.11 | 2.07 | 30.4 | 1.5 | 11.9 | 1.41 | Antibody 1 (antibody, human IgG1, lambda) heavy: EVQLVQSGAEVKKPGASVKVSCKASGYMFTSYGISWVRQAPGQGLEWMGWVSTYNGDTNYAQKFQGRVTVTTDTSTSTAYMELRSLRSEDTAVYYCARVLGYYDSIDGYYYGMDVWGQGTTVTVSSASTKGPSVFPLAPSSKSTSGGTAALGCLVKDYFPEPVTVSWNSGALTSGVHTFPAVLQSSGLYSLSSVVTVPSSSLGTQTYICNVNHKPSNTKVDKRV[human IgG1 Fc skipped] light: QSVLTQPPSLSVAPGKTATFTCGGNNIGDKSVHWYRQKPGQAPVLVMYLDTERPSGIPERMSGSNFGNTATLTITRVEAGDEADYYCQVWDSGSDHVVFGGGTKLTVLGQPKAAPSVTLFPPSSEELQANKATLVCLISDFYPGAVTVAWKADSSPVKAGVETTTPSKQSNNKYAASSYLSLTPEQWKSHRSYSCQVTHEGSTVEKTVAPAECS | 0.11 |  |  |  |  |  |
|  |  |  |  |  |  | Conjugate 1 (antibody, human IgG1, lambda, here or on the partner: DM4 attached through the sulfo-SPDB linker to available lysine residues (positions not given); DAR 3.5 ± 0.5 for the whole antibody) heavy: EVQLVQSGAEVKKPGASVKVSCKASGYMFTSYGISWVRQAPGQGLEWMGWVSTYNGDTNYAQKFQGRVTVTTDTSTSTAYMELRSLRSEDTAVYYCARVLGYYDSIDGYYYGMDVWGQGTTVTVSSASTKGPSVFPLAPSSKSTSGGTAALGCLVKDYFPEPVTVSWNSGALTSGVHTFPAVLQSSGLYSLSSVVTVPSSSLGTQTYICNVNHKPSNTKVDKRV[human IgG1 Fc skipped] light: QSVLTQPPSLSVAPGKTATFTCGGNNIGDKSVHWYRQKPGQAPVLVMYLDTERPSGIPERMSGSNFGNTATLTITRVEAGDEADYYCQVWDSGSDHVVFGGGTKLTVLGQPKAAPSVTLFPPSSEELQANKATLVCLISDFYPGAVTVAWKADSSPVKAGVETTTPSKQSNNKYAASSYLSLTPEQWKSHRSYSCQVTHEGSTVEKTVAPAECS |  | 1.8 | 0.5 | 0.04 | 0.24 | 5 |
